The record followed here is PubChem BioAssay AID1745853 (National Center for Advancing Translational Sciences (NCATS), 2022).

Some of the results follow. These are further read-outs of the screen, such as a control signal, another cell line or another target. No call is given for them.

What all share (assay): Primary Screen for Target Class Profiling of Small Molecule Inhibitors of Methyltransferases
Experiment [1] addresses Glycine N-methyltransferase (Homo sapiens) (UniProt Q14749). The settings on record: purified enzyme, MTase-Glo SAH luminescence; measured here: GNMT inhibition; at 40 µM; stronger effect = lower value. The procedure, abridged: (§1)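 Each enzyme was reacted with SAM and its substrate, with compounds tested once at 40 uM; SAH formed was read by MTase-Glo luminescence.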
For experiment [2], the target named is Guanidinoacetate N-methyltransferase (Homo sapiens) (UniProt Q14353). The settings on record: purified enzyme, MTase-Glo SAH luminescence; measured here: GAMT inhibition; at 40 µM; stronger effect = lower value. The procedure, abridged:
as §1

Experiment [3] deals with Histamine N-methyltransferase (Homo sapiens) (UniProt P50135). Conditions: purified enzyme, MTase-Glo SAH luminescence; measured here: HNMT inhibition; at 40 µM; stronger effect = lower value. Summed up: as §1
Experiment [4] has as its target Nicotinamide N-methyltransferase (Homo sapiens) (UniProt P40261). The settings on record: purified enzyme, MTase-Glo SAH luminescence; measured here: NNMT inhibition; at 40 µM; stronger effect = lower value. Summed up: as §1
Experiment [5] deals with Phenylethanolamine N-methyltransferase (Homo sapiens) (UniProt P11086). The settings on record: purified enzyme, MTase-Glo SAH luminescence; measured here: PNMT inhibition; at 40 µM; stronger effect = lower value. The procedure, abridged:
as §1
% is scaled to controls: 0 for no effect and ±100 for the full control effect.

Turning to `C/C=C1/CC2C(=O)Nc3cc(O)c(OC)cc3C(=O)N2C1` (stereo not drawn), the activity change, negative = inhibition was 0.268% in experiment [1]; -1.44% in experiment [2]; 8.67% in experiment [3]; -13% in experiment [4]; 3.79% in experiment [5].
`CCCn1c(=O)c2cc(Cl)ccc2n2c(=O)n(CC(=O)Nc3ccc(F)cc3)nc12`: the activity change, negative = inhibition in experiment [1] was -7.8%; in experiment [2], 0%; in experiment [3] it was 5.37%; in experiment [4], -7.92%; in experiment [5] it was -7.42%.
For the molecule `COc1ccc(-c2nnc(-c3ccc(Cl)c(S(=O)(=O)N4CCC(C)CC4)c3)o2)cc1OC`, the activity change, negative = inhibition in experiment [1] was -1.95%; in experiment [2], 2.46%; in experiment [3], 1.81%; in experiment [4], 1.04%; in experiment [5] it was -0.984%.
Taken in the same sequence, the figures for `Cn1nc(C(=O)N2CCCC(CN3CCOCC3)CC2)c2ccccc21` (stereo not drawn) were -5.86%, -0.807%, -3.11%, -2.92% and -11.7%.
As for `COc1ccc(OC)c(CN2C(=O)c3cc4ccccc4n3CC2(C)C(=O)NCCC(C)C)c1` (stereo not drawn), the activity change, negative = inhibition in experiment [1] was -2.07%; in experiment [2], 1.48%; in experiment [3] it was -1.65%; in experiment [4] it was -8.49%; in experiment [5], -9.53%.
Taken in the same sequence, the figures for `Cc1cc2c(cc3n2CC(C)(C(=O)NC2CCCCCCC2)N(Cc2cccc(F)c2)C3=O)o1` (stereo not drawn) were -1%, 3.24%, 3.17%, -0.622% and -0.202%.
Taken in the same sequence, the figures for `CCn1cc(S(=O)(=O)N2CC(N(C3CCOCC3)S(C)(=O)=O)C2)cn1` were -5.42%, -9.57%, -2.2%, -11.9% and -5.97%.
Consider `O=C(C[C@@H]1O[C@H](CNC(=O)C2CC2)[C@@H](O)[C@H]1O)Nc1ccccc1`, for which the activity change, negative = inhibition was -5.07% in experiment [1]; -8.17% in experiment [2]; -2.57% in experiment [3]; -7.7% in experiment [4]; -3.39% in experiment [5].
Turning to `O=S(=O)(c1ccccc1)c1nnn2c1nc(NCc1ccc(F)cc1)c1ccccc12`, the activity change, negative = inhibition in experiment [1] is -6.44%; in experiment [2], 1.37%; in experiment [3], -3.61%; in experiment [4], -7.25%; in experiment [5], -7.11%.
Take `COc1ccc(CCN2C(=O)c3cc4ccccc4n3CC2(C)C(=O)NCc2ccccc2OC)c(OC)c1` (stereo not drawn): the activity change, negative = inhibition in experiment [1] stood at 7.12%; in experiment [2] it was 0.019%; in experiment [3], 8.94%; in experiment [4], 11.2%; in experiment [5] it was 3.37%.
In the same order, the values of `Fc1ccc(C2Cn3cnc(-c4nc(-c5ccsc5)no4)c3CO2)cc1` (stereo not drawn) are -8.75%, -6.73%, -4.96%, -16.2% and -24.4%.
For `CC(Nc1nc2c(S(=O)(=O)c3ccc(Cl)cc3)nnn2c2ccccc12)c1ccccc1` (stereo not drawn), the activity change, negative = inhibition is -1.55% in experiment [1]; 0.743% in experiment [2]; 1.72% in experiment [3]; 5.76% in experiment [4]; -6.04% in experiment [5].
As for `CCCN1C(=O)c2c(C(=O)Nc3c(C)cccc3C)ncn2CC1(C)C(=O)NCc1ccc(OC)cc1` (stereo not drawn), the activity change, negative = inhibition is -0.612% in experiment [1]; 4.17% in experiment [2]; 7.04% in experiment [3]; 3.94% in experiment [4]; 7.89% in experiment [5].
In the same order, the values of `O=C(Cn1c(=O)n2nc(-c3cccc(F)c3)nc2c2ccccc21)N1CCN(c2ccccc2F)CC1` are 2.42%, 0%, -3.05%, -0.048% and -1.78%.
`CC1CCN(c2cc(N3CCN(C)CC3)ccc2NC(=O)c2cc(C#N)c[nH]2)CC1`: the activity change, negative = inhibition was 4.49% in experiment [1]; 3.26% in experiment [2]; 8.24% in experiment [3]; -10.8% in experiment [4]; 2.79% in experiment [5].
As to `CC(C)(O)CC(CO)NC(=O)CC(O)CC(=O)Cc1ccccc1` (stereo not drawn), the activity change, negative = inhibition in experiment [1] is 2.4%; in experiment [2] it was -4.01%; in experiment [3] it was 7.26%; in experiment [4], -12.3%; in experiment [5], -4.06%.
In the case of `CC(C)OCCCn1c(=O)c2ccccc2n2c(CCC(=O)NC3CCN(Cc4ccccc4)CC3)nnc12`, the activity change, negative = inhibition was -9.97% in experiment [1]; 0.266% in experiment [2]; -22.2% in experiment [3]; 11.6% in experiment [4]; 3.9% in experiment [5].
Take `c1ccc(C(c2ccccc2)N2CCN(Cc3nc(-c4ccccn4)no3)CC2)cc1`: the activity change, negative = inhibition in experiment [1] is -1.31%; in experiment [2] it was -1.53%; in experiment [3], 0.714%; in experiment [4] it was -21.8%; in experiment [5], -2.64%.
Taken in the same sequence, the figures for `O=C(O)c1cc(-c2cccc(CO)c2)cc(S(=O)(=O)NC2CCCC2)c1` were -1.62%, 1.49%, 1.56%, -2.09% and 1.53%.
For the molecule `COc1ccc(NC(=O)N[C@H]2C[C@@H](C(=O)N[C@@H](Cc3cccs3)C(N)=O)N(C(=O)CSC)C2)cc1`, the activity change, negative = inhibition in experiment [1] was -4.46%; in experiment [2] it was -3.6%; in experiment [3], -0.27%; in experiment [4], -6.78%; in experiment [5] it was -20.1%.
As to `CCCN1C(=O)c2cc(C(=O)NCCCOC(C)C)nn2CC1(C)C(=O)NC1CCCC1` (stereo not drawn), the activity change, negative = inhibition in experiment [1] is 1.84%; in experiment [2], -0.108%; in experiment [3], 0.195%; in experiment [4], -4.21%; in experiment [5], -0.09%.
On to `CCN(CC)CCNC(=O)c1c(C)[nH]c(/C=C2\C(=O)Nc3ccc(Cl)cc32)c1C`, for which the figures for the activity change, negative = inhibition in experiment [2], in experiment [4] and in experiment [5] were -11.1%, -25.6% and -28.5%, respectively.
With `COc1cc(C(CO)CO[C@@H]2O[C@H](CO)[C@@H](O)[C@H](O)[C@H]2O)ccc1O` (stereo partly drawn), the activity change, negative = inhibition in experiment [1] is 3.98%; in experiment [2], 2.11%; in experiment [3], 9.71%; in experiment [4], -10.9%; in experiment [5], -6.41%.
Consider `CCCn1c(=O)c2ccc(C(=O)NC(C)CC)cc2n2c(=O)n(Cc3ccc(Cl)cc3)nc12` (stereo not drawn), for which the activity change, negative = inhibition in experiment [1] is -1.85%; in experiment [2] it was 0%; in experiment [3] it was 2.12%; in experiment [4], -5.39%; in experiment [5] it was 1.96%.
In the same order, the values of `Cc1noc2c(NCCN3CCOCC3)cc(-c3ccsc3)nc12` are -7.96%, -5.97%, -9.92%, -24% and -13.8%.
Taken in the same sequence, the figures for `COCC1(CNC(=O)c2cnccn2)C[C@@H](O)[C@@H](O)C1` (stereo partly drawn) were -5.33%, -6.97%, -4%, -5.84% and -5.89%.
Take `COc1nc2c(cc1CNC(=O)c1cccnc1C)C(=O)N(C1CCCC1)C2`: the activity change, negative = inhibition in experiment [1] is -5.98%; in experiment [2], -6.48%; in experiment [3], -4.54%; in experiment [4] it was -8.58%; in experiment [5] it was -3.85%.
Turning to `CCCCN1C(=O)c2cc(C(=O)Nc3ccc(Cl)cc3)nn2CC1(C)C(=O)NC1CCCC1` (stereo not drawn), the activity change, negative = inhibition in experiment [1] was 3.41%; in experiment [2], 4.94%; in experiment [3], -10.9%; in experiment [4] it was 1.41%; in experiment [5], 4.59%.
For `Clc1ccc(-c2nnn3c2nc(NCc2ccc4c(c2)OCO4)c2ccccc23)cc1`, the activity change, negative = inhibition in experiment [1] is 3.71%; in experiment [2], 0.684%; in experiment [3] it was 6.26%; in experiment [4], 8.18%; in experiment [5] it was -0.602%.
As for `CC(C)CCN1C[C@@H]2C[C@H]1C(=O)N(Cc1cccnc1)c1ccccc1O2`, the activity change, negative = inhibition was -16.6% in experiment [1]; -10.2% in experiment [2]; -11% in experiment [3]; -29.9% in experiment [4]; -15.8% in experiment [5].
